# Laboratory results: the supplement of paper PMC10126150
# Sequences with one replicate were seen in a single cluster, so their values are uncertain.
# Tested on: ATP
# Assay: switch fluorescence ratio, 500 uM ATP over buffer (Cy3 cluster intensity, sum of 5 cycles each) (fold (ratio)); higher = stronger signal-on switching upon ATP binding; sequences stand for … in TCGTCGGCAGCGTCAGATGTGTATAAGAGACAGTTTTTTTTTTTTTTTTTTTTTTTTT…TC
# Conditions: aptamer strand: ATP DNA aptamer (quencher-CACCTGGGGGAGTATTGCGGAGGAAGG + anchor), 100 nM annealed; ATP concentration: 500 uM; one replicate
# Summary of the method: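 The quencher-labelled ATP aptamer, at 100 nM, was annealed to Cy3-labelled switching-strand clusters on a modified Illumina MiSeq flow-cell. The clusters were imaged in selection buffer, then after 15 min with 500 uM ATP at 22 °C, and this buffer/ATP cycle ran five times with NaOH stripping and re-annealing between runs. Per-cluster fluorescence ratios, summed target-cycle over summed buffer-cycle Cy3 intensity, were averaged per switch-domain sequence. Clusters outside 100-1000 RFU were excluded.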
# 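Also: ATP exposure 15 min at 22 °C before imaging.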
row,Sequence,switch fluorescence ratio
1,CTGGCGCGTA,1.03
2,CCAACGGATG,1.06
3,TTCGGGAGTA,0.955
4,AAATAACCAC,1.08
5,ATCTCACCAA,1.15
6,AGCAGTCCCG,1.04
7,TCAGAGTTCA,1.02
8,GTAAAAGCG,1.03
9,ATTTACTGTG,1.02
10,GAGACAGCGT,0.984
11,TCTGTAACCG,0.99
12,TCAGCCCCGA,0.987
13,GTGGGCACGA,0.991
14,CCTTTAGGTG,1.18
15,GATTATCACA,1
16,TACTTTATAC,1.14
17,GACTTCAAGA,1.01
18,GGATGTATGT,1.04
19,CTCGTACCGT,0.955
20,GAACAACTGA,0.965
21,TTATTTTGTC,1.01
22,TGAGGCCAGT,0.986
23,TTTAGTTCCA,0.965
24,TAACATGATG,0.99
25,GCTTTCAGTT,0.988

row,Sequence,switch fluorescence ratio
1,ATTGTCTTTT,1.01
2,CTTTAGCCCT,0.979
3,TGGCGTGGGC,1.01
4,AAGGGAGCCG,0.99
5,GCTATAAGAG,1.02
6,AGCGAGAGAT,1.01
7,GAACTTGTCC,1
8,TCAGGTGTCG,0.933
9,CTAACGTA,1.07
10,AGTCGCAAGG,1.04
11,AATGGGCTTA,0.957
12,TCAGTGAGAG,1.02
13,CGGTATGGTG,1.16
14,TTCTGTGTCC,0.984
15,TCAGGCATTA,1.12
16,TTCTAAGTGG,0.967
17,TAACAATGAG,0.992
18,TTTCCCGTGC,1.11
19,TAGATAGGGT,0.97
20,TCCCTTATAG,1.03
21,CACCGATATT,1.1
22,GGCCCGCAGG,1.1
23,ATCGGGAGCT,1.05
24,TTTTCGCGTT,0.973
25,AATTTTGTAA,1.05

row,Sequence,switch fluorescence ratio
1,CAACCGGATT,1.15
2,TGCGGAGCG,0.961
3,TTACGATGAC,1.45
4,TGCATTTACC,1.14
5,ATGTTCTTAC,1.03
6,AAATGCTGTG,1.04
7,ACTCGCGGAA,1.01
8,AGAGGTTCTG,0.997
9,TAACTCGGAC,1.1
10,ATGAAATCTA,0.987
11,TAGAGTAGGG,0.961
12,AAGAAGGAAA,1.01
13,CCGGCTAGA,1.08
14,TTGGATTCTA,0.958
15,AATCTTAGAA,1.01
16,CGGCGATTTT,1.13
17,CGACAAACTT,1.12
18,TGGGTCAAGG,0.969
19,TACACCATTT,1.05
20,ATGCCCTATC,1
21,TGCGATCCCG,0.999
22,AGAGTGTTGC,0.933
23,GGCTAAGCTA,0.972
24,ATCCGCCTTC,1.4
25,GGAAATTTTA,1.01

row,Sequence,switch fluorescence ratio
1,GAAATAGTTC,1.02
2,CAACGTTATG,1.04
3,GGTTAAGGAC,0.991
4,TCTAGCAGCT,1.03
5,AGGTTCTTAT,0.975
6,TTCAAGATGA,0.978
7,TTTATATCTA,0.994
8,TTCTAAGTAT,1.05
9,TTGGAATTT,1.03
10,TCTTAGGTAA,1.02
11,TTCTTTGCAG,1.03
12,GTAACGTATC,1.13
13,TGACGACCAG,1.08
14,CTCTGAATGC,3.26
15,GGCGGTTGGC,1.02
16,ATAATCTGTC,0.942
17,CCATTGTCGA,1.01
18,AAAGTGCAGC,0.953
19,TCGAAGATGA,1
20,GCGTATGCAG,0.982
21,CCGAGCCGAT,1.58
22,GCATGCATAT,0.984
23,AAAACGCAGA,1.13
24,TACACGTGGG,1.07
25,ATAAGTGCTA,0.945
